Measured values from publication PMC12136788.
Some of the results follow.

T1: UNK ZnF1-3 (human, UniProt Q9C0B0 31-174)
T1 sequence: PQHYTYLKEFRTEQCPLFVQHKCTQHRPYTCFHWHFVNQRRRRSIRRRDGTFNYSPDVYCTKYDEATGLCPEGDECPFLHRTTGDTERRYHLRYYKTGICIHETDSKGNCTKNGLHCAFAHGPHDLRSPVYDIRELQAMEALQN

B1: 57771027_57777582_1111_CDS_ENSMUSG00000055720_ENSMUST00000163329|mouse|control|control (ssRNA)
RNA: GGGAGUUCUACAGUCCGACGAUCGCUUAGUUCGUCAUCCUGGAUGCCCAUGUCACGCAACUGCUGCAGCUGAGGCUGCCACUGGAUCUGAAGGCUGGGCUGCCCAGAGGCCUGCAGGGCAUGCUGGAGAGCUUGGCUAAAAAGCAACAGAGGAUUGAGCAUCA
B2: 42839324_42839525_1391_CDS_ENSG00000105429_ENST00000334370|human|control|control (ssRNA)
RNA: GGGAGUUCUACAGUCCGACGAUCCAGGUCCCAAGACUCCCAGGUGUUGGCGGAGAAGUUGUAUAGGACGAGGUCACCCAGGGCAUUGUUGAGGUCCUGGCCUCCGAAAACUGCCAGCAGCCCUGGUGGGGACAGGAAGGCGCCCAACAGAGGAUUGAGCAUCA
B3: chr1:244855233:244855234:+_ENSG00000121644_ENST00000302550|hu_mus|hu_hu_hu_mus_True|78_88 (ssRNA)
RNA: GGGAGUUCUACAGUCCGACGAUCCAUCAGAUGGUAGGCGUUGCCCUUGUAUUCUUUUCCCAGUUCUUCUACAAUUUUCUCUAUAUCAUCUUCUAGAAAGUCCGUACUUCCUAGAACAACAGCUUCUUUAAAUUUAAAUGUUUCCAACAGAGGAUUGAGCAUCA
B4: chr1:187193504:187193505:+_ENSMUSG00000026615_ENSMUST00000046514|mus_hu|FALSE|FALSE (ssRNA)
RNA: GGGAGUUCUACAGUCCGACGAUCAUCAAUCUCAGUAUGUUCCAUCAGAUUAGAGCCAUAUAACCCAGCUGUAGUUGCAACUCUAGCCAAGUAGCGAAGUAUAGAAUUCACAUCUGUGAAUAUCACAUUUUCAGAAACAUGAAGCAACAGAGGAUUGAGCAUCA
B5: chr8:104433209:104433210:+_ENSG00000164934_ENST00000297579|hu_mus|FALSE|FALSE (ssRNA)
RNA: GGGAGUUCUACAGUCCGACGAUCAAAACCUUCAUGUGCUUGUAUUGUUCGGAUACAUUUUCGUUUAGUCAGAUUCCAAAUUUUAACCUCUCCAUCACAUGCCCCAGAAAGGACAGAAGCCAGGCUCUUUGGAUGCUUUGCCAGCAACAGAGGAUUGAGCAUCA
B6: 171544185_171546610_7175_CDS_ENSG00000117523_ENST00000367742|human|control|control (ssRNA)
RNA: GGGAGUUCUACAGUCCGACGAUCUUUUGUGCUCAAAGAAGAGGUAGUGUAUGUACCAGCUCCUGAUAGUGAUGCUGUAGGAGUGACUGAAGCAACAGGAAUCUGGGGCAUGGAUGCACUUGAGAACGAAUUGUAAUUAGCAGUCAACAGAGGAUUGAGCAUCA
B7: chr3:119242560:119242561:+_ENSG00000113845_ENST00000264244|hu_hu|motif|central (ssRNA)
RNA: GGGAGUUCUACAGUCCGACGAUCUCAGCUCUCCAGUGAGUUUCAAGUUCAGAGCACUUUCAGUCCUUGUCUUGUUUAUCGGUUACUGAAGGGUUUCUAGGAAGGUUUAGCAGUGCUUCAAUUUUCUUAGCAUCAUUCUCAGGUCAACAGAGGAUUGAGCAUCA
B8: chrX:55033037:55033038:+_ENSG00000169188_ENST00000374987|hu_hu|FALSE|FALSE (ssRNA)
RNA: GGGAGUUCUACAGUCCGACGAUCAGUGACUGCUGACCAGCAGGUGAAGGCCCCCUCCUGCUUUGGUUGGAAGCAGCGGUAGCUAUCGAUGAAGGGCCCUACAUGAGAGGCAGACUGGCACCCCAAGUUACUGAGCAAGCUGUCCAACAGAGGAUUGAGCAUCA
B9: 109746028_109746148_1226_CDS_ENSMUSG00000025529_ENSMUST00000071814|mouse|control|control (ssRNA)
RNA: GGGAGUUCUACAGUCCGACGAUCAGUUGUGAAAUCACAAUCUGUACACUGGUACUUCUUUCUCAUCAAAUGAUCGGGAUGAUUCUUCAUGUGUCUUUUUAAGAAUCCCCUGGAUUUAAACUUUUUUGUGCAAAUAUGGCAAGGCAACAGAGGAUUGAGCAUCA
B10: 150068528_150068648_336_CDS_ENSG00000214022_ENST00000425389|human|control|control (ssRNA)
RNA: GGGAGUUCUACAGUCCGACGAUCGACCUGGCGGUGCAGUGCUAAGAAGGGGGCAUGGCGAAAGCGACGGCCACACUCAGGGCAGGGCAAGGGCAGCCGGGCCUGGCACCGGCGGGUGUGAAGCCACAGAGCCACCCAGCCAGGCAACAGAGGAUUGAGCAUCA
B11: chr1:163117127:163117128:-_ENSG00000143248_ENST00000313961|hu_mus|hu_hu_hu_mus_False|1_78 (ssRNA)
RNA: GGGAGUUCUACAGUCCGACGAUCUGCUACAAAGGAUGUAACUCAACUCACAGGGCAUGAUUUCAUAGCCUGACCAGAUGACUACUUGAUUAGCUCCUUAUAAAAUUCAGAGCGCACAAAGCGGGGCAGAGAAUCCUUUUCCAUCAACAGAGGAUUGAGCAUCA
B12: chr6:38652254:38652255:-_ENSG00000124767_ENST00000373365|hu_hu|hu_hu_hu_mus_False|8_78 (ssRNA)
RNA: GGGAGUUCUACAGUCCGACGAUCCGAGAACUUCAUAGCAGGGAAGUCAAGCUUCUGGAUUAGCGUCAGUCCAAGAACCCUCGUAUAAAAAUCCAGGGACUUCUUAGGAUCCUUAAUUCUUAGCAUCGUCUGCUGCAGUAGAAACAACAGAGGAUUGAGCAUCA
B13: chr2:104430793:104430794:+_ENSMUSG00000027176_ENSMUST00000028599|mus_hu|motif|central (ssRNA)
RNA: GGGAGUUCUACAGUCCGACGAUCCGUCUCCUGACAUGGCCUCAGCUGAUUACAACGUGCGCACUGACCGUCGAUGGGAAGCGGGAAAAGAAAAAUUAAACUAAAAACCACCCCCAAAUCAGUAAAGUUACCCCCUGCCCAGCUCAACAGAGGAUUGAGCAUCA
B14: 117521585_117542866_2093_CDS_ENSMUSG00000038371_ENSMUST00000164759|mouse|control|control (ssRNA)
RNA: GGGAGUUCUACAGUCCGACGAUCUGUCCAAAUGGGGUGGUCCUGUACACAGGUGUAGGCAAACUGGCUGACUCCAGGGGCAAGUUUCCUAUAGAAAGCACUGGUCAGGGGGAGUAAUGCUGCAGCGAUGUUAUAUUCUUCUAACAACAGAGGAUUGAGCAUCA
B15: chr14:76906223:76906224:+_ENSMUSG00000022010_ENSMUST00000022587|mus_mus|motif|central (ssRNA)
RNA: GGGAGUUCUACAGUCCGACGAUCCACUUCCUCCCUCACCGCAUACAUCAAAUGGCUUUUCACCAGAUCCAUAGCUUGCUCGGUUUUGUUGUCGAUAGCUACCACACUUGCACCAGAGCUAUUGUCAAGUCUCACGGAAGCGUUCAACAGAGGAUUGAGCAUCA
B16: chr2:99204607:99204608:+_ENSG00000040933_ENST00000545415|hu_hu|motif|central (ssRNA)
RNA: GGGAGUUCUACAGUCCGACGAUCGGUAGUGUAGAUAGGAUAAUUCACUAGAACCCGUUAUUCUCACUGCAUGAGAUAGUGCGGGCUUCUUUCCCCAAAUAACAUUUAUUGGUAUGCCUAGGAUCCAAUUAUUUAAUUUAUUAUCAACAGAGGAUUGAGCAUCA
B17: 80668181_80669720_2026_CDS_ENSMUSG00000035051_ENSMUST00000038166|mouse|control|control (ssRNA)
RNA: GGGAGUUCUACAGUCCGACGAUCAGAGAUCCGUCGGGGUUGGGUACAGAUGAUGUUGGCCACCCUCUCGGGUGGCCCAUUCAGAGAAUUAUCCAGGAUAAACUGUGGAAUCUGUGUGGUUUUCCCACAUCCAGUCAUACCACUCAACAGAGGAUUGAGCAUCA
B18: chr5:145858064:145858065:+_ENSG00000113649_ENST00000394421|hu_mus|FALSE|FALSE (ssRNA)
RNA: GGGAGUUCUACAGUCCGACGAUCCCACAUAGAAAGGCGGGUGGUGGGAUUGUAAAAGAAGACCCUCUCAUCACCAGUCCAAACAACACACCAUGGAGUACCAGGAAUAGGAGUAGUAGCUACUGGCUUUGCCUUCUGGGCAGCCAACAGAGGAUUGAGCAUCA
B19: chr17:58740566:58740567:+_ENSG00000170836_ENST00000305921|hu_mus|FALSE|FALSE (ssRNA)
RNA: GGGAGUUCUACAGUCCGACGAUCUUUUUGGUCCAUGAUAGUAUUUGUUGAAUUGGUUGGAAUGAGGCCAACUGACAGAGUAUUAUUCAAAGAAUCAUGAAUCCUUAAAGUCAGGGCUUUGGGGCAAUUUUCUUCAAGUGUCUCCAACAGAGGAUUGAGCAUCA
B20: chr3:31621302:31621303:+_ENSG00000163527_ENST00000295770|hu_mus|motif|central (ssRNA)
RNA: GGGAGUUCUACAGUCCGACGAUCUAAAAUCCAAUGAAUAAGGCCAGCUGUUAUCAUCAACCCUGGGUAAACGGUGCCACCCACGGUUCUUCCCAGUGGGUACCAUGCUCUUUCAUCAAACCAAUUUAGAAACUCAUAGAAUCCCAACAGAGGAUUGAGCAUCA
B21: chr10:24632779:24632780:+_ENSMUSG00000019984_ENSMUST00000092646|mus_hu|FALSE|FALSE (ssRNA)
RNA: GGGAGUUCUACAGUCCGACGAUCCAUAGCUCUAAUAAGUUGUUAUGAAUAUGAACAACAUGUAUCUUACUUGAUCUCUUAGAGACAAAAAUAUAGAUAGGGAGAUGGGAGUUAUAAGGUGUCAACAGAUUCAUCAUUUGAAUCCAACAGAGGAUUGAGCAUCA
B22: chr14:66974463:66974464:+_ENSMUSG00000022044_ENSMUST00000074523|mus_hu|mus_mus_mus_hu_False|18_88 (ssRNA)
RNA: GGGAGUUCUACAGUCCGACGAUCUUGUAGGACGACUUAUUCAGGGGAUCAGACAAGAAGCAGGAGCAGAACAAGGACACCAGCGGGAGCUCCUUCAUCUUCUCUUUGUAGGCAGCAAGAGUCAUGUUUCUGGGAUCUGGUGGCCAACAGAGGAUUGAGCAUCA

target: T1, UNK ZnF1-3; assay: nsRBNS (natural sequence RNA bind-n-seq); RBNS binding buffer (assumed for nsRBNS): 25 mM Tris pH 7.5, 150 mM KCl, 3 mM MgCl2, 0.01% Triton X-100, 500 ug/ml BSA, 20 U/ml SUPERase-In, 4 C; UNK is unkempt and MSI1 is Musashi-1; names of the RNAs are library labels; protein concentration not given here; high values mean tight binding

| Binder | binding signal [enrichment R] |
| --- | --- |
| B1 | 0.77 |
| B2 | 1.2 |
| B3 | 1.35 |
| B4 | 1.25 |
| B5 | 0.907 |
| B6 | 1.12 |
| B7 | 0.614 |
| B8 | 1.22 |
| B9 | 0.437 |
| B10 | 1.08 |
| B11 | 1.12 |
| B12 | 1.21 |
| B13 | 2.21 |
| B14 | 1.17 |
| B15 | 1.02 |
| B16 | 0.961 |
| B17 | 0.558 |
| B18 | 1.21 |
| B19 | 0.832 |
| B20 | 0.786 |
| B21 | 0.782 |
| B22 | 1.83 |
